IC50 is the fitted dose that halves viability relative to control wells, and lower means more sensitive; a fit beyond the top or the lowest dose is shown as a bound at that dose. AUC is the area under the same curve over the 256-fold range up to the top dose, as a fraction; the more sensitive the line, the further below 1. For some of these results: An inferred top dose was calculated from the reported fits.
How the values were obtained:
Assay in all cases: Viability of human cancer cell lines after 72 h of drug (GDSC screen)
XMD14-99 = compound: COc1cc(N2CCN(C)CC2)ccc1Nc1nc(N)c(C(=O)c2c(Cl)cccc2Cl)s1 [XMD14-99]; details: top dose 10.24 µM; top dose inferred
Experimental: (§1)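 Human cancer cell lines in 384-well plates, medium with 10% serum, drug for 72 h over a 256-fold dose range (nine 2-fold or five 4-fold steps up to the top dose). Adherent lines were fixed and stained with the nucleic acid dye Syto60, suspension lines read with resazurin; signal relative to control wells, capped at 0 and 100%. One two-parameter sigmoid per drug and line, fitted in a mixed model over all curves with the slope shared within a line.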

FH535 = compound: Cc1cc([N+](=O)[O-])ccc1NS(=O)(=O)c1cc(Cl)ccc1Cl [FH535]; details: top dose 32 µM; top dose inferred
Experimental: as §1

A-443654 = compound: Cc1n[nH]c2ccc(-c3cncc(OC[C@@H](N)Cc4c[nH]c5ccccc45)c3)cc12 [A-443654]; details: top dose 1.024 µM; top dose inferred
Experimental: as §1

Dasatinib = compound: Cc1nc(Nc2ncc(C(=O)Nc3c(C)cccc3Cl)s2)cc(N2CCN(CCO)CC2)n1 [Dasatinib]; details: top dose 1.28 µM
Experimental: as §1

AT-7519 = compound: O=C(NC1CCNCC1)c1n[nH]cc1NC(=O)c1c(Cl)cccc1Cl [AT-7519]; details: top dose 10.24 µM; top dose inferred
Experimental: as §1

Cell Line	AUC (XMD14-99)	IC50 (XMD14-99)	AUC (FH535)	IC50 (FH535)	AUC (A-443654)	IC50 (A-443654)	AUC (Dasatinib)	IC50 (Dasatinib)	AUC (AT-7519)	IC50 (AT-7519)
KARPAS-299 (anaplastic large cell lymphoma, suspension)	0.838	5330 nM	0.952	> 32000 nM	0.785	360 nM	0.984	> 1280 nM	0.258	151 nM
SNU-C1 (large intestine, suspension)	0.98	> 10200 nM	0.961	> 32000 nM	0.89	> 1020 nM	0.98	> 1280 nM	0.78	6450 nM
H9 (lymphoid neoplasm, suspension)	0.986	> 10200 nM	0.784	11100 nM	0.855	597 nM	0.992	> 1280 nM	0.745	2750 nM
A3-KAW (B-cell lymphoma, suspension)	0.945	> 10200 nM	0.747	8480 nM	0.685	187 nM	0.874	830 nM	0.348	267 nM
NCI-H1304 (small cell lung carcinoma, suspension)	0.988	> 10200 nM	0.935	> 32000 nM	0.677	208 nM	0.976	> 1280 nM	0.796	5240 nM
COR-L279 (small cell lung carcinoma, suspension)	0.972	> 10200 nM	0.937	> 32000 nM	0.821	510 nM	0.969	> 1280 nM	0.447	465 nM
D-336MG (glioma, adherent)	0.964	> 10200 nM			0.79	604 nM	0.244	11.5 nM	0.444	432 nM
NCI-H64 (small cell lung carcinoma, suspension)	0.996	> 10200 nM	0.688	5750 nM	0.728	232 nM	0.988	> 1280 nM	0.333	251 nM
HSC-39 (stomach, suspension)	0.971	> 10200 nM	0.755	9510 nM	0.865	704 nM	0.991	> 1280 nM	0.616	1270 nM
NB6 (neuroblastoma, adherent)	0.965	> 10200 nM	0.771	15200 nM	0.798	621 nM	0.82	968 nM	0.734	3540 nM
EVSA-T (breast, adherent)	0.991	> 10200 nM	0.81	14000 nM	0.71	226 nM	0.933	> 1280 nM	0.591	1090 nM
LC-2-ad (lung adenocarcinoma, adherent)	0.97	> 10200 nM	0.651	5320 nM	0.366	27.1 nM	0.376	36 nM	0.496	625 nM

From the supplement of paper PMC4967469
